Molecules are shown by their SMILES. Where a name gives a salt, the structure may show the parent alone. Inhibition of entry of single-cycle reporter particles into MDCK-SIAT1 cells, 3 h drug pretreatment, overnight read-out. IC50, lower = stronger. No active / inactive call; only inhibitors are listed. Mostly one titration per compound.

This assay has as its system E-S-FLU (Zaire C15 EBOV-GP pseudotyped S-FLU) in MDCK-SIAT1 cells. As to the kind of experiment: IC50 inhibition of E-S-FLU (EBOV-GP pseudotyped influenza) infection. Here is the method: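 MDCK-SIAT1 cells were pretreated for 3 h with two-fold drug dilutions, then exposed overnight to a single-cycle eGFP reporter particle coated with the named glycoprotein; eGFP read on fixed cells. Mostly one titration per compound; only inhibitors are listed.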

Take `C=CCN1CCc2cc(O)c(O)cc2C(c2ccccc2)C1` (stereo unspecified): the “IC50 inhibition of E-S-FLU” value turned out to be 132 µM.

Turning to `CC(C)(N)c1ncc(-c2ccc(OC(F)(F)F)cc2)[nH]1`, the “IC50 inhibition of E-S-FLU” value amounted to 53 µM.

For `CC(C)[C@H](NC(=O)OCc1ccccc1)C(=O)N[C@H](C=O)Cc1ccccc1`, the “IC50 inhibition of E-S-FLU” value worked out at 3.81 µM.

With `CC1CCN(CC[C@H]2CCCN2S(=O)(=O)c2cccc(O)c2)CC1`, the “IC50 inhibition of E-S-FLU” value was 38.5 µM.

Turning to `CCN(CC)CCOc1ccc(Nc2ncc3cc(-c4c(Cl)cccc4Cl)c(=O)n(C)c3n2)cc1`, the “IC50 inhibition of E-S-FLU” value amounted to 0.2 µM.

With `CCN(CC)Cc1ccc(C(=O)N(CCc2ccccc2OC)[C@@H]2CCNC2)cc1`, the “IC50 inhibition of E-S-FLU” value came out at 19.1 µM.

Consider `CN(C)CCCc1cc(C(=O)Nc2ccc(-c3ccncc3)cc2)ccc1O`, for which the “IC50 inhibition of E-S-FLU” value was found to be 21.8 µM.

`CN1CCC[C@@H]1Cc1c[nH]c2ccc(Nc3ncccc3[N+](=O)[O-])cc12`: the “IC50 inhibition of E-S-FLU” value was determined as 44.3 µM.

Turning to `CN1CCN(c2nc3cc(C(F)(F)F)ccc3n3cccc23)CC1`, the “IC50 inhibition of E-S-FLU” value stood at 11.8 µM.

For the compound `COC(=O)C1=C(C)NC(C)=C(C(=O)OC)C1c1cccc(NC(=O)NCCCN2CCC(c3cccc(OC)c3)CC2)c1`, the “IC50 inhibition of E-S-FLU” value worked out at 14.7 µM.

In the case of `COC(=O)N1CCN(C(=O)Cc2ccc(Cl)c(Cl)c2)C(CN2CCCC2)C1` (stereo unspecified), the “IC50 inhibition of E-S-FLU” value came out at 71 µM.

As for `COc1cc2nc(N3CCCN(C)CC3)nc(NC3CCN(Cc4ccccc4)CC3)c2cc1OC`, the “IC50 inhibition of E-S-FLU” value is 1 µM.

Regarding `COc1ccc(/C=C/c2nc(NCCCN(C)C)c3ccccc3n2)cc1`, the “IC50 inhibition of E-S-FLU” value came to 5.5 µM.

For `COc1ccc(NC(=O)c2ccc(-c3ccc(-c4noc(C)n4)cc3C)cc2)cc1N1CCN(C)CC1`, the “IC50 inhibition of E-S-FLU” value was 4.5 µM.

In the case of `COc1ccc2c(c1)CC[C@@H]1[C@@H]2CC[C@]2(C)[C@@H](NCCCCCCN3C(=O)CCC3=O)CC[C@@H]12`, the “IC50 inhibition of E-S-FLU” value was 3.9 µM.

As for `COc1ccccc1CNC1CCCNC1c1ccccc1` (stereo unspecified), the “IC50 inhibition of E-S-FLU” value came to 29.7 µM.

For the compound `COc1ccccc1CN[C@H]1CCCN[C@H]1c1ccccc1`, the “IC50 inhibition of E-S-FLU” value stood at 34.2 µM.

With `Cc1cc2nc(NCCCO)n(CC(=O)c3cc(C(C)(C)C)c(O)c(C(C)(C)C)c3)c2cc1C`, the “IC50 inhibition of E-S-FLU” value stood at 12.7 µM.

Take `Cn1c(=O)c(-c2c(Cl)cccc2Cl)cc2cnc(Nc3ccc(N4CCOCC4)cc3)nc21`: the “IC50 inhibition of E-S-FLU” value was found to be 0.6 µM.

In the case of `Cn1cc(C(=O)OCC2CCN(CCNS(C)(=O)=O)CC2)c2ccccc21`, the “IC50 inhibition of E-S-FLU” value is 145 µM.

As for `Fc1ccc(C(OCCN2CCN(CCCc3ccccc3)CC2)c2ccc(F)cc2)cc1`, the “IC50 inhibition of E-S-FLU” value turned out to be 15.7 µM.

Turning to `O=C(NOCC1CC1)c1cc(Br)c(F)c(F)c1Nc1ccc(I)cc1Cl`, the “IC50 inhibition of E-S-FLU” value is 23 µM.

In the case of `c1cc(CN2CCCCC2)cc(OCCCNc2nc3ccccc3s2)c1`, the “IC50 inhibition of E-S-FLU” value stood at 19.2 µM.

For the compound `CC(C)(C)[C@]1(O)CCN2C[C@H]3c4ccccc4CCc4cccc(c43)[C@@H]2C1` (racemic) [(±)-Butaclamol hydrochloride], the “IC50 inhibition of E-S-FLU” value was 27.4 µM.

Turning to `COc1cc2c(cc1O)CC[C@@H]1[C@@H]2CC[C@]2(C)[C@@H](O)CC[C@@H]12` [2-methoxy estradiol], the “IC50 inhibition of E-S-FLU” value was determined as 48.8 µM.

As for `NC(N)=NC(=O)c1nc(Cl)c(N2CCCCCC2)nc1N` [5-(N,N-hexamethylene) amiloride], the “IC50 inhibition of E-S-FLU” value was found to be 16.7 µM.

In the case of `CCN(c1nc(N)c(C(=O)NC(=N)N)nc1Cl)C(C)C` [5-(N-Ethyl-N-isopropyl) amiloride (EIPA)], the “IC50 inhibition of E-S-FLU” value was 17.8 µM.

For the compound `NC(Cc1cc(O)c(O)cc1O)C(=O)O` (stereo not drawn) [6-Hydroxy-DL-DOPA], the “IC50 inhibition of E-S-FLU” value was determined as 81.4 µM.

Take `CC1=C(/C=C/C(C)=C/C=C/C(C)=C\C(=O)O)C(C)(C)CCC1` [13-cis-retinoic acid]: the “IC50 inhibition of E-S-FLU” value is 123 µM.

On to `CC(C)(C)[C@]1(O)CCN2C[C@H]3c4ccccc4CCc4cccc(c43)[C@@H]2C1` [(+)-Butaclamol hydrochloride], for which the “IC50 inhibition of E-S-FLU” value is 27 µM.

With `COc1ccc(CCN(C)CCCC(C#N)(c2cc(OC)c(OC)c(OC)c2)C(C)C)cc1OC` (stereo not drawn) [(±)-Methoxyverapamil HCl], the “IC50 inhibition of E-S-FLU” value was determined as 52.5 µM.

With `CN1CCN(C2Cc3ccccc3Sc3ccc(Cl)cc32)CC1` (stereo not drawn) [(±)-Octoclothepin maleate], the “IC50 inhibition of E-S-FLU” value was found to be 7.7 µM.

For the compound `CC(C)NCC(O)COc1cccc2ccccc12` (stereo not drawn) [(±)-Propranolol HCl], the “IC50 inhibition of E-S-FLU” value came out at 99.8 µM.

On to `NCCNS(=O)(=O)c1cccc2c(Cl)cccc12` [A3 hydrochloride], for which the “IC50 inhibition of E-S-FLU” value is 47 µM.

For the compound `CC(C)(C)c1ccc(/C=C/C(=O)Nc2ccc3c(c2)OCCO3)cc1` [AMG 9810], the “IC50 inhibition of E-S-FLU” value was 34.8 µM.

`c1ccc(C(NCCNC(c2ccccc2)c2ccccc2)c2ccccc2)cc1` [AMN082]: the “IC50 inhibition of E-S-FLU” value amounted to 16.5 µM.

`Clc1ccccc1CNCC1CCC(CNCc2ccccc2Cl)CC1` (stereo unspecified) [AY9944]: the “IC50 inhibition of E-S-FLU” value was 7.81 µM.

In the case of `CC(=O)c1ccc2c(c1)N(CCCN(C)C)c1ccccc1S2` [Acepromazine maleate], the “IC50 inhibition of E-S-FLU” value was 24.6 µM.

`CC(N)C(=O)OC(C)(C)Cc1ccc(Cl)cc1` (stereo unspecified) [Alaproclate hydrochloride]: the “IC50 inhibition of E-S-FLU” value came to 30 µM.

In the case of `CN1[C@@H]2CC[C@H]1C[C@@H](OC(c1ccccc1)c1ccccc1N)C2` (stereo partly specified) [Aminobenztropine], the “IC50 inhibition of E-S-FLU” value came out at 23 µM.

On to `CCCCc1oc2ccccc2c1C(=O)c1cc(I)c(OCCN(CC)CC)c(I)c1` [Amiodarone hydrochloride], for which the “IC50 inhibition of E-S-FLU” value came to 2.04 µM.

Take `CN(C)CCC=C1c2ccccc2CCc2ccccc21` [Amitriptyline hydrochloride]: the “IC50 inhibition of E-S-FLU” value was determined as 18.8 µM.

Take `Clc1ccc2c(c1)C(N1CCNCC1)=Nc1ccccc1O2` [Amoxapine]: the “IC50 inhibition of E-S-FLU” value was found to be 18.6 µM.

For the compound `O=c1cc(-c2ccc(O)cc2)oc2cc(O)cc(O)c12` [Apigenin], the “IC50 inhibition of E-S-FLU” value stood at 67.4 µM.

For the compound `CN1CCc2cccc3c2[C@H]1Cc1ccc(O)c(O)c1-3` [Apomorphine HCl hemihydrate], the “IC50 inhibition of E-S-FLU” value was 60.4 µM.

On to `CCN(CC)CCCN(c1ccccc1)C1Cc2ccccc2C1` [Aprindine hydrochloride], for which the “IC50 inhibition of E-S-FLU” value is 10.6 µM.

For the compound `CCOC(=O)c1c(CSc2ccccc2)n(C)c2cc(Br)c(O)c(CN(C)C)c12` [Arbidol], the “IC50 inhibition of E-S-FLU” value is 5.17 µM.

As to `O=C(O)C1=CC(=C(c2ccc(O)c(C(=O)O)c2)c2ccc(O)c(C(=O)O)c2)C=CC1=O` [Aurintricarboxylic acid], the “IC50 inhibition of E-S-FLU” value was 26.6 µM.

Turning to `CC[C@H]1OC(=O)[C@H](C)[C@@H](O[C@H]2C[C@@](C)(OC)[C@@H](O)[C@H](C)O2)[C@H](C)[C@@H](O[C@@H]2O[C@H](C)C[C@H](N(C)C)[C@H]2O)[C@](C)(O)C[C@@H](C)CN(C)[C@H](C)[C@@H](O)[C@]1(C)O` [Azithromycin], the “IC50 inhibition of E-S-FLU” value was 6.7 µM.

`COc1ccc(-c2cc3ncc(C)n3c(Nc3ncccc3C(N)=O)n2)cc1OC` [BAY 61-3606 hydrochloride hydrate]: the “IC50 inhibition of E-S-FLU” value was found to be 12.8 µM.

`O=C1/C(=C/c2ccccc2)C[C@@]2(O)[C@H]3Cc4ccc(O)c5c4[C@@]2(CCN3CC2CC2)[C@H]1O5` [BNTX maleate salt hydrate]: the “IC50 inhibition of E-S-FLU” value amounted to 6.9 µM.

With `COc1ccccc1N1CCN(CCCCNC(=O)c2ccc3ccccc3c2)CC1` [BP 897], the “IC50 inhibition of E-S-FLU” value was found to be 34.3 µM.

As for `c1ccc2sc(C3(N4CCCCC4)CCCCC3)cc2c1` [BTCP hydrochloride], the “IC50 inhibition of E-S-FLU” value is 41.4 µM.

Consider `CC(N)Cc1c[nH]c2ccc(OCc3cccs3)cc12` (stereo unspecified) [BW723C86], for which the “IC50 inhibition of E-S-FLU” value amounted to 22.4 µM.

On to `COc1cccc(OC)c1OCCNCC1CSc2ccccc2O1` (stereo unspecified) [Benoxathian hydrochloride], for which the “IC50 inhibition of E-S-FLU” value was determined as 61.7 µM.

As for `CN1[C@@H]2CC[C@H]1C[C@@H](OC(c1ccccc1)c1ccccc1)C2` [Benztropine mesylate], the “IC50 inhibition of E-S-FLU” value came to 9.6 µM.

With `CN1[C@@H]2CC[C@H]1C[C@@H](OC(c1ccccc1)c1ccccc1)C2` [Benztropine], the “IC50 inhibition of E-S-FLU” value is 9.76 µM.

For `CC(C)COCC(CN(Cc1ccccc1)c1ccccc1)N1CCCC1` (stereo unspecified) [Bepridil], the “IC50 inhibition of E-S-FLU” value was 2.68 µM.

For `CC(C)NCC(O)COc1ccc(CCOCC2CC2)cc1` (stereo unspecified) [Betaxolol hydrochloride], the “IC50 inhibition of E-S-FLU” value stood at 81.8 µM.

On to `OC(CCN1CCCCC1)(c1ccccc1)C1CC2C=CC1C2` (stereo unspecified) [Biperiden hydrochloride], for which the “IC50 inhibition of E-S-FLU” value is 34.8 µM.

Turning to `CC(C)NCC(O)COc1ccc(COCCOC(C)C)cc1` (stereo unspecified) [Bisoprolol hemifumarate], the “IC50 inhibition of E-S-FLU” value worked out at 86.9 µM.

On to `COc1cc(Nc2c(C#N)cnc3cc(OCCCN4CCN(C)CC4)c(OC)cc23)c(Cl)cc1Cl` [Bosutinib], for which the “IC50 inhibition of E-S-FLU” value was found to be 3.53 µM.

Consider `CCc1cccc(N(C)C(=N)Nc2cccc3ccccc23)c1` [CNS-1102], for which the “IC50 inhibition of E-S-FLU” value is 53.3 µM.

For `CCN(CC)CCOCCOC(=O)C1(c2ccccc2)CCCC1` [Carbetapentane citrate], the “IC50 inhibition of E-S-FLU” value was 48 µM.

Consider `CCN(CC)CCn1c(=O)c(Cc2ccc(OC)cc2)nc2ccccc21` [Caroverine hydrochloride], for which the “IC50 inhibition of E-S-FLU” value is 71.3 µM.

In the case of `COc1ccccc1OCCNCC(O)COc1cccc2[nH]c3ccccc3c12` (stereo unspecified) [Carvedilol], the “IC50 inhibition of E-S-FLU” value stood at 12.7 µM.

For `CN(C)CCCN1c2ccccc2Sc2ccc(Cl)cc21` [Chlorpromazine hydrochloride], the “IC50 inhibition of E-S-FLU” value turned out to be 17.3 µM.

Turning to `CN(C)CC/C=C1/c2ccccc2Sc2ccc(Cl)cc21` [Chlorprothixene hydrochloride], the “IC50 inhibition of E-S-FLU” value worked out at 12.6 µM.

For `c1ccc(C2(c3ccccc3)CC2C2=NCCN2)cc1` (stereo unspecified) [Cibenzoline succinate], the “IC50 inhibition of E-S-FLU” value came out at 107 µM.

Regarding `CC[C@H]1OC(=O)[C@H](C)[C@@H](O[C@H]2C[C@@](C)(OC)[C@@H](O)[C@H](C)O2)[C@H](C)[C@@H](O[C@@H]2O[C@H](C)C[C@H](N(C)C)[C@H]2O)[C@](C)(OC)C[C@@H](C)C(=O)[C@H](C)[C@@H](O)[C@]1(C)O` [Clarithromycin], the “IC50 inhibition of E-S-FLU” value came to 14 µM.

In the case of `Clc1ccc(Cn2c(CN3CCCC3)nc3ccccc32)cc1` [Clemizole hydrochloride], the “IC50 inhibition of E-S-FLU” value was determined as 110 µM.

The values above are taken from the supplement of paper PMC5790926.
